Values marked as one replicate rest on one cluster of the flow cell; about a third of the high ones do not repeat.
Tested on: ATP
Experiment: switch fluorescence ratio, 500 uM ATP over buffer (Cy3 cluster intensity, sum of 5 cycles each) (fold (ratio)); higher = stronger signal-on switching upon ATP binding; sequences stand for … in TCGTCGGCAGCGTCAGATGTGTATAAGAGACAGTTTTTTTTTTTTTTTTTTTTTTTTT…TC
Conditions: aptamer strand: ATP DNA aptamer (quencher-CACCTGGGGGAGTATTGCGGAGGAAGG + anchor), 100 nM annealed; ATP concentration: 500 uM; one replicate
Summary of the method: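 For every switch-domain sequence, the fluorescence ratio is the mean of per-cluster values, each being summed target-cycle Cy3 intensity over summed buffer-cycle Cy3 intensity. Clusters outside 100-1000 RFU were excluded. On a modified Illumina MiSeq flow-cell, the Cy3-labelled switching-strand clusters were annealed to 100 nM quencher-labelled ATP aptamer, imaged in selection buffer and then after 15 min with 500 uM ATP at 22 °C. Five such cycles were run, with NaOH stripping and re-annealing between them.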
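Note: ATP exposure 15 min at 22 °C before imaging.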

In the case of ATAACGCCAG, the switch fluorescence ratio is reported as 1.01.

TAAGGGACAG was tested, and the switch fluorescence ratio was 1.02.

AAGATACTTT was tested, and the switch fluorescence ratio was 1.04.

Work on TATTTGTAAG yielded a switch fluorescence ratio of 0.995.

Sequence AATGTACATC has a switch fluorescence ratio of 1.06.

GGCCTAAGAT gave a switch fluorescence ratio of 0.973.

Sequence GACGTGACTG has a switch fluorescence ratio of 0.937.

In the case of ACAATGCTCA, the switch fluorescence ratio is reported as 1.48.

GGCCGTACTG was tested, and the switch fluorescence ratio was 1.

CCGATGTGCC showed a switch fluorescence ratio of 1.33.

GACGTTTATC was tested, and the switch fluorescence ratio was 1.06.

ATTAGTACAC showed a switch fluorescence ratio of 1.09.

With TTTAATTCTC the switch fluorescence ratio was 0.994.

With AAGTTATAGG the switch fluorescence ratio was 1.03.

In the case of AGACATAAGG, the switch fluorescence ratio is reported as 1.

GCTTACCATA showed a switch fluorescence ratio of 1.06.

Work on GCCTTTACGT yielded a switch fluorescence ratio of 1.03.

GTAGGTACT showed a switch fluorescence ratio of 1.04.

GTAGGAGACA showed a switch fluorescence ratio of 1.01.

AGTAGTTATC showed a switch fluorescence ratio of 1.02.

Work on GTTTGATGAC yielded a switch fluorescence ratio of 1.07.

TTTGCGATGA gave a switch fluorescence ratio of 1.07.

In the case of GGGCTCAGCG, the switch fluorescence ratio is reported as 0.972.

In the case of ACGCTTATGC, the switch fluorescence ratio is reported as 1.84.

Sequence CCCTGAATCG has a switch fluorescence ratio of 0.998.

Sequence ATTGCATGGG has a switch fluorescence ratio of 1.01.

For CCTTAGTTCC, the switch fluorescence ratio was 1.03.

Sequence AGTTTTTCTG has a switch fluorescence ratio of 0.94.

Sequence AGTGATGGAG has a switch fluorescence ratio of 0.966.

CTGGGTGGG gave a switch fluorescence ratio of 1.

TGCGTCAGTC gave a switch fluorescence ratio of 0.96.

With ATGTCGGTGC the switch fluorescence ratio was 0.979.

In the case of CATGCCATGT, the switch fluorescence ratio is reported as 0.993.

AACGCGATCA was tested, and the switch fluorescence ratio was 1.29.

CGGATTTATT gave a switch fluorescence ratio of 0.982.

For CCCATCCCTT, the switch fluorescence ratio was 1.04.

In the case of TGCAATCCAT, the switch fluorescence ratio is reported as 0.995.

ACGTAAAATG was tested, and the switch fluorescence ratio was 1.07.

In the case of AGAAATGCAG, the switch fluorescence ratio is reported as 1.05.

With ATGTCAGTA the switch fluorescence ratio was 0.985.

GGTGATGC gave a switch fluorescence ratio of 1.08.

In the case of AGGTCTTTAC, the switch fluorescence ratio is reported as 1.

AGAAGGGTAG showed a switch fluorescence ratio of 0.979.

AGTTTCGCAC gave a switch fluorescence ratio of 1.04.

TATGACAGAC was tested, and the switch fluorescence ratio was 1.06.

Sequence CTGACCGGGG has a switch fluorescence ratio of 1.08.

With AAGACAAGGT the switch fluorescence ratio was 1.01.

For GGAACTATAA, the switch fluorescence ratio was 1.01.

In the case of ATAGGCTTTG, the switch fluorescence ratio is reported as 1.02.

GTGGGGGATC gave a switch fluorescence ratio of 0.956.

In the case of GCAGCCGTAG, the switch fluorescence ratio is reported as 1.03.

For ATCCCATCTA, the switch fluorescence ratio was 0.997.

For CGTAATTTAT, the switch fluorescence ratio was 0.972.

With ACGTAATGCG the switch fluorescence ratio was 1.04.

GGCCATGAAA gave a switch fluorescence ratio of 1.01.

CAAGTAGAT gave a switch fluorescence ratio of 1.

Work on GCGGCGTGGA yielded a switch fluorescence ratio of 1.01.

Sequence GCCTGATAAT has a switch fluorescence ratio of 0.987.

Work on CGGCCGGAGG yielded a switch fluorescence ratio of 0.978.

With CTTATCGATA the switch fluorescence ratio was 1.02.

For AGAATACGTC, the switch fluorescence ratio was 1.04.

TCCTGTGGTA was tested, and the switch fluorescence ratio was 1.

In the case of CGTTATGGTT, the switch fluorescence ratio is reported as 0.963.

TGTTGAAGTG showed a switch fluorescence ratio of 0.957.

Sequence TAATGGACAT has a switch fluorescence ratio of 1.01.

In the case of CCTTAAGTAT, the switch fluorescence ratio is reported as 1.05.

TCGTCCATTC showed a switch fluorescence ratio of 1.09.

For TCCTCGTTCC, the switch fluorescence ratio was 1.07.

For ATATCTCGCG, the switch fluorescence ratio was 0.984.

For TGCCACCCTT, the switch fluorescence ratio was 1.11.

For AGGGTCCAGG, the switch fluorescence ratio was 1.4.

For CCATCTTGTC, the switch fluorescence ratio was 0.965.

Work on ATATATGACC yielded a switch fluorescence ratio of 1.07.

AGGGACTACT gave a switch fluorescence ratio of 1.

CCGTACGGCG showed a switch fluorescence ratio of 1.01.

ACCAGTGGTC showed a switch fluorescence ratio of 0.996.

For CCTTATGATG, the switch fluorescence ratio was 0.979.

Sequence ACAGGGCTGG has a switch fluorescence ratio of 1.01.

In the case of AAGCGGGCGT, the switch fluorescence ratio is reported as 1.03.

TAGAATTTGT was tested, and the switch fluorescence ratio was 0.966.

In the case of CATGATTGGC, the switch fluorescence ratio is reported as 1.

Work on TGTGTCGGTG yielded a switch fluorescence ratio of 1.02.

For AGTGACTGG, the switch fluorescence ratio was 1.02.

CGCCAGGCAA gave a switch fluorescence ratio of 3.43.

For TGACCAAAGC, the switch fluorescence ratio was 1.45.

CAAAATGGAT gave a switch fluorescence ratio of 0.993.

With GAATTAAGTG the switch fluorescence ratio was 0.96.

Work on AACTTGGGCG yielded a switch fluorescence ratio of 0.989.

TTGCAGTTCT showed a switch fluorescence ratio of 1.09.

Work on ATTGGTGATC yielded a switch fluorescence ratio of 0.996.

ACACTAACGT was tested, and the switch fluorescence ratio was 1.44.

For TCCCCACCTA, the switch fluorescence ratio was 0.979.

In the case of CAGAATATAC, the switch fluorescence ratio is reported as 1.48.

With CCGAATACAT the switch fluorescence ratio was 1.24.

ATAGGGTGGC was tested, and the switch fluorescence ratio was 0.953.

TCAAGACTAC showed a switch fluorescence ratio of 1.06.

Sequence AGCAGAACGT has a switch fluorescence ratio of 1.14.

ATTGCTCTAC was tested, and the switch fluorescence ratio was 1.09.

Work on CTGCCTAGGA yielded a switch fluorescence ratio of 1.

Work on CATAGCAATG yielded a switch fluorescence ratio of 3.42.

In the case of AGAAAGTCAT, the switch fluorescence ratio is reported as 0.969.

ATTGAGTGCC was tested, and the switch fluorescence ratio was 1.01.

In the case of CATAAGTTG, the switch fluorescence ratio is reported as 1.02.

For TTGGCTCTTA, the switch fluorescence ratio was 0.988.

Work on AGACGCCTCA yielded a switch fluorescence ratio of 0.986.

For AAAGTGAG, the switch fluorescence ratio was 1.04.

GGGGTTCGGA gave a switch fluorescence ratio of 0.984.

For TGGAGAATAG, the switch fluorescence ratio was 1.09.

With CAAGGTATAC the switch fluorescence ratio was 1.18.

With TAGCGATCCC the switch fluorescence ratio was 1.19.

Sequence GATTACCTTC has a switch fluorescence ratio of 1.44.

TTTGGCGGG showed a switch fluorescence ratio of 1.

Sequence TATAAGCAGC has a switch fluorescence ratio of 1.04.

With TTTCAGTGCG the switch fluorescence ratio was 0.985.

TCCAAGTAGC gave a switch fluorescence ratio of 1.07.

AGACATAGGA gave a switch fluorescence ratio of 0.999.

TATGTGCACT showed a switch fluorescence ratio of 0.922.

Sequence GGAGAACAGC has a switch fluorescence ratio of 1.01.

With GCGCTCTAGT the switch fluorescence ratio was 0.982.

CGCGCTCAAA showed a switch fluorescence ratio of 1.01.

For GGGGGCAGCG, the switch fluorescence ratio was 0.991.

With GTGTTTGACC the switch fluorescence ratio was 0.977.

ACGATCATTA was tested, and the switch fluorescence ratio was 1.09.

Work on TGAGAGTCGA yielded a switch fluorescence ratio of 1.02.

AATTTGACAG was tested, and the switch fluorescence ratio was 1.02.

Sequence TCCCGATGGC has a switch fluorescence ratio of 1.09.

With GGACCTCCCT the switch fluorescence ratio was 1.14.

Sequence AGCTCACTCT has a switch fluorescence ratio of 0.982.

TACGGGGTCG was tested, and the switch fluorescence ratio was 1.09.

Sequence AGAAGTGCAT has a switch fluorescence ratio of 1.

GCGATACGGT showed a switch fluorescence ratio of 3.08.

AATACAGTTG gave a switch fluorescence ratio of 0.995.

Sequence ATTAGTAACT has a switch fluorescence ratio of 1.04.

Work on ATCTGGCCCC yielded a switch fluorescence ratio of 1.02.

Sequence GAGCAAGGCG has a switch fluorescence ratio of 1.02.

For AACGAATAAT, the switch fluorescence ratio was 0.97.

Work on GCATGATCTG yielded a switch fluorescence ratio of 1.01.

Work on CAGTGGCACG yielded a switch fluorescence ratio of 1.

Work on CTCCGGATGG yielded a switch fluorescence ratio of 2.3.

Sequence CAATTAGATC has a switch fluorescence ratio of 1.01.

In the case of TGATTGAGTG, the switch fluorescence ratio is reported as 0.984.

With CAATGCAACG the switch fluorescence ratio was 1.02.

Sequence AAGTATGTG has a switch fluorescence ratio of 0.996.

TAGCACTCCT gave a switch fluorescence ratio of 1.18.

Work on ACGGTTTAAA yielded a switch fluorescence ratio of 1.06.

Work on TTAATTTACC yielded a switch fluorescence ratio of 1.11.

With AGTAGAGAAA the switch fluorescence ratio was 1.02.

With GAATACGCGC the switch fluorescence ratio was 1.15.

CCTTAATCGA gave a switch fluorescence ratio of 1.01.

AGACCCGCCC was tested, and the switch fluorescence ratio was 1.3.

With ACTCGAGTT the switch fluorescence ratio was 1.

Sequence GACCCTCAGT has a switch fluorescence ratio of 1.

Work on TCATTCGCG yielded a switch fluorescence ratio of 1.

ATGGAAGAAT showed a switch fluorescence ratio of 0.99.

TTCATCCGCG showed a switch fluorescence ratio of 3.21.

In the case of TGGGCATCGG, the switch fluorescence ratio is reported as 0.973.

Work on GAACGAGGTC yielded a switch fluorescence ratio of 0.957.

For TACGCTTGAC, the switch fluorescence ratio was 1.69.

In the case of GGGTGATCGC, the switch fluorescence ratio is reported as 0.98.

TCAATG showed a switch fluorescence ratio of 0.993.

Work on GCGTCCTCTT yielded a switch fluorescence ratio of 0.97.

With GTGGGGTGGC the switch fluorescence ratio was 0.952.

In the case of GAGAGTCGT, the switch fluorescence ratio is reported as 0.972.

GTGTGAAGCG was tested, and the switch fluorescence ratio was 1.02.

For CCCCCTTGCG, the switch fluorescence ratio was 1.69.

Sequence GGGGTGCAGG has a switch fluorescence ratio of 0.972.

For GTCGCTTGAC, the switch fluorescence ratio was 1.

Work on GACATGGTTG yielded a switch fluorescence ratio of 1.01.

For GTACGAGAAA, the switch fluorescence ratio was 1.01.

For ATCTGTACTG, the switch fluorescence ratio was 0.941.

CGGGGCCATA showed a switch fluorescence ratio of 0.996.

With CTGATCAGAT the switch fluorescence ratio was 0.977.

GATTTCGG showed a switch fluorescence ratio of 0.989.

Sequence GTAGAAGGTA has a switch fluorescence ratio of 0.998.

GCCCTGAATT showed a switch fluorescence ratio of 0.961.

In the case of GAAATCTTAA, the switch fluorescence ratio is reported as 1.01.

For CAAAACCGGA, the switch fluorescence ratio was 1.07.

For AAGCGTTTTC, the switch fluorescence ratio was 1.01.

Work on TAGCATGATC yielded a switch fluorescence ratio of 1.1.

In the case of TGGCCGCACC, the switch fluorescence ratio is reported as 3.1.

For GATCAGGAAA, the switch fluorescence ratio was 0.998.

With AGAAATATTA the switch fluorescence ratio was 0.966.

With CCATCGACCT the switch fluorescence ratio was 1.17.

With CCCCTGGACC the switch fluorescence ratio was 1.04.

TTGCGGATTC gave a switch fluorescence ratio of 1.06.

ACTTAAAGCC gave a switch fluorescence ratio of 1.05.

TTGCTTGGG showed a switch fluorescence ratio of 1.03.

Work on TACAATATGC yielded a switch fluorescence ratio of 1.1.

With GTTTGAAATC the switch fluorescence ratio was 0.962.

Sequence TTGCTGCCCA has a switch fluorescence ratio of 0.993.

AGACCTTGGA gave a switch fluorescence ratio of 1.04.

Work on TGTCATGCCC yielded a switch fluorescence ratio of 1.

Work on CTATTCTGAC yielded a switch fluorescence ratio of 1.01.

ACCAACCAAA gave a switch fluorescence ratio of 1.36.

TGATGTCTGA gave a switch fluorescence ratio of 1.02.

Sequence ACTCCGATA has a switch fluorescence ratio of 3.2.

In the case of ATAGACATAG, the switch fluorescence ratio is reported as 1.02.

GCAGTATCGT was tested, and the switch fluorescence ratio was 0.982.

For AGCTCAGTAC, the switch fluorescence ratio was 1.35.

ACGGACCTCT gave a switch fluorescence ratio of 1.31.

Work on GTTAGCCCTG yielded a switch fluorescence ratio of 1.03.
